Out of some 45,000 compounds screened, about 200 (0.44%) were called active. About 7% were inconclusive and are not listed. Calls come from the whole dose curve; as a rule, active = well fitted activation curve with a large enough effect; inconclusive = small, poorly fitted or top-dose-only effect; inactive = no such curve, though single readings can be large or run the other way. This is one part of the list.
assay: qHTS of TDP-43 Inhibitors: NCGC Sytravon Library Screen; conditions: yeast TDP-43 toxicity rescue, BacTiter-Glo growth, 24 h; at 46.1 µM (top of the series); note: 0% is about no effect; nearly all actives have a fitted effect of over 55% in size
Method in brief: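 TDP-43-expressing yeast, pregrown in raffinose, seeded at OD600 0.02 in galactose medium with compound for 24 hr at 30 deg C. Growth read by BacTiter-Glo luminescence, so rescue of toxicity appears as activation.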

SMILES | growth rescue (activation)
O=c1oc2ccccc2c(O)c1C(c1ccc([N+](=O)[O-])cc1)c1c(O)c2ccccc2oc1=O | inactive: -16.1%
Cc1cc(O)c(CN2CC=C(c3ccccc3)CC2)cc1C(C)C | inactive: -12.4%
CCCSc1nc2ccccc2c(=O)n1-c1ccccc1OC | inactive: 29.8%
NC(Cc1ccc(F)cc1)c1csc(Nc2ncccn2)n1 (stereo not drawn) | inactive: 18.2%
COC(=O)c1c(C)n(Cc2ccccc2)c2ccc(O)cc12 | inactive: 10.1%
CN1C(=O)C(=Cc2ccc(N3CCOCC3)o2)C(=O)N(C)C1=O | inactive: 1.49%
Cc1cc(Cl)ccc1C(=O)C1CCCN(Cc2ccon2)C1 (stereo not drawn) | inactive: 9.27%
COc1ccc(C)cc1NC1=NCCCS1 | inactive: 1.24%
O=C1NC(=O)C(=Cc2cc([N+](=O)[O-])ccc2N2CCCCC2)C(=O)N1 | inactive: 5.14%
Cc1cc(C)c(-n2c(O)c(/C=N/NC(=O)c3ccncc3)c(=O)[nH]c2=O)c(C)c1 | inactive: 8.09%
O=c1[nH]c2ccccc2c(=O)n1-c1ccc(Cl)c(Cl)c1 | inactive: -4.43%
Cc1nn(Cc2ccccc2)c(C)c1C(=O)O | inactive: 13.5%
CCOC(=O)c1c(/N=C/c2c(O)n(-c3cccc(C)c3)c(=O)[nH]c2=O)sc2c1CCCC2 | inactive: 4.36%
CN1CCC(N(C)c2ccc(C(N)=O)cc2[N+](=O)[O-])CC1 | inactive: 9.48%
O=c1cccc2n1CC1CC2CN(c2nc(N3CCCCC3)nc(N3CCCCC3)n2)C1 (stereo not drawn) | inactive: 18.1%
Cc1c(OC(=O)N(C)C)ccc2c1O/C(=C\c1ccco1)C2=O | inactive: 6.52%
COc1cc2c(cc1OC)CN(c1ccc([N+](=O)[O-])c(C(F)(F)F)c1)CC2 | inactive: -2.22%
C=Cn1ccnc1P(=S)(c1ccc(Cl)cc1)c1nccn1C=C | inactive: 8.37%
O=c1c2ccccc2nc(/C=C/c2ccc(O)cc2)n1-c1cccc(O)c1 | inactive: 4.34%
Cn1cccc1C1CCCN1CC(=O)Nc1ccc(C#N)c(Cl)c1 (stereo not drawn) | inactive: -0.083%

SMILES | growth rescue (activation)
Cc1ccc(-n2c(O)c(/C=N/N3CCOCC3)c(=O)[nH]c2=S)cc1 | inactive: -39%
C[C@]12CC[C@@H](O)CC1=CCC1C2CC[C@@]2(C)C1C[C@@H](F)[C@@H]2O (stereo partly drawn) | inactive: 14.6%
CCOc1ccc(Cl)cc1CNCCc1ccccc1F | inactive: -4.78%
CN1C(=O)C(=Cc2ccccc2OCCOc2ccc([N+](=O)[O-])cc2)C(=O)N(C)C1=O | inactive: -17%
CC1(c2ccc(Cl)cc2Cl)OCC(Cn2cncn2)O1 (stereo not drawn) | inactive: 16.5%
CNC(=S)N(C)CCc1cc2c(c(OC)c1C=C1C(=O)NC(=O)NC1=O)OCO2 | inactive: 8.97%
O=C(COC(=O)Cc1ccccc1)Nc1ccc(F)cc1 | inactive: 21.6%
CCC(C)C12CN3CCN(CC(C)(C3)C1O)C2 (stereo not drawn) | inactive: 16.7%
COc1ccccc1NC(=O)c1cn(CCC#N)nc1-c1ccc(F)cc1 | inactive: -0.708%
CCCCn1c(O)c(C(C)=NCCc2ccccc2)c(=O)[nH]c1=O | inactive: 26.2%
COc1ccc(OCC(=O)N2CCN(C3CCC(c4ccccc4)CC3)CC2)cc1 (stereo not drawn) | inactive: -16%
COc1ccccc1N1CCN(Cc2ccc(F)cc2)CC1 | inactive: 0.401%
Cc1ccc(N2C(=O)NC(=O)C(CCc3ccncc3)(Cc3cccc(Cl)c3Cl)C2=O)cc1 (stereo not drawn) | inactive: 14.9%
NC(Cc1ccc(F)cc1)c1csc(Nc2cnccn2)n1 (stereo not drawn) | inactive: 9.84%
CN1CCc2cc3c(c4c2C1Cc1ccccc1-4)OCO3 (stereo not drawn) | inactive: -10.3%
Cc1cccc(NC(=O)Cn2cc(C(=O)c3ccccc3)c3ccccc32)c1 | inactive: 9.47%
CC(=O)O[C@@H]1CC[C@]2(C)C3CC[C@]4(C)C(=O)[C@H](O)CC4C3[C@@H](OC(C)=O)C[C@H]2C1 (stereo partly drawn) | inactive: -3.16%
Cc1ccc(/C=C2/Sc3ccc(C(=O)N4CCC5(CC4)OCCO5)cc3NC2=O)cc1 | inactive: -0.28%
COc1ccc(C(=O)C2CCCN(Cc3ccsc3)C2)cc1OC (stereo not drawn) | inactive: 2.52%
CCCCCCNc1nc(OC)nc(N2CC3CC(C2)c2cccc(=O)n2C3)n1 (stereo not drawn) | inactive: 19%

SMILES | growth rescue (activation)
CC#CP(=O)(OC)C(O)(CF)c1ccccc1 (stereo not drawn) | inactive: 1.38%
N/C(=N/[N+](=O)[O-])N1CCN(C(=O)c2ccc(Cl)cc2)CC1 | inactive: -6.5%
CC(C)c1ccc(-n2c(O)c(/C=N/NC(=O)c3ccncc3)c(=O)[nH]c2=O)cc1 | inactive: 21.1%
c1ccc(-c2ccc(-c3n(-c4ccccn4)c4ccccc4[n+]3-c3ccccn3)cc2)cc1 | inactive: 8.76%
Cc1cc(/C=C2\C(=O)NC(=O)N(c3ccc(F)cc3)C2=O)c(C)n1-c1cccc(C(=O)O)c1 | inactive: -5.26%
CCn1ccnc1CN1CCCC(C(=O)c2cccc(C(F)(F)F)c2)C1 (stereo not drawn) | inactive: -11%
Cc1cccc(-n2c(/C=C/c3ccccc3O)nc3ccccc3c2=O)c1 | inactive: 2.07%
CN1C(=O)C(=Cc2cn(CC(=O)N3CCCCC3)c3ccccc23)C(=O)N(C)C1=O | inactive: 10.7%
CC(=O)OC1C2CCC1C(N1CCCCC1)CC2 (stereo not drawn) | inactive: 2.03%
OC(CNCCc1c[nH]c2ccccc12)c1ccccc1 (stereo not drawn) | inactive: -3.46%
CCOC(=O)C1=CC(=C2C(=O)N(CC)C(=S)N(CC)C2=O)c2ccccc2O1 | inactive: 0.343%
O=C(Cn1c2c(c(-c3ccccc3Cl)cc1=O)CCC2)N1CCC2(CC1)OCCO2 | inactive: 0.179%
CC(C)c1ccccc1NC1=NCCCS1 | inactive: 8.57%
COc1ccc(OC)c(-n2c(O)c(/C=C3\C=Nc4ccccc43)c(=O)[nH]c2=O)c1 | inactive: 8.03%
CCCCc1nc2ccccc2c(=O)n1-c1ccccc1O | inactive: 6.55%
CN1CCN(S(=O)(=O)c2cnc(Cl)c(Br)c2)CC1 | inactive: 15.7%
COc1cc(/C=C/C(=O)c2c(O)n(CCc3ccccc3)c(=O)[nH]c2=O)ccc1O | inactive: -22.9%
Cc1cccc(OCCn2cccc2/C=C2/C(=O)NC(=O)N(Cc3ccco3)C2=O)c1 | inactive: 6.28%

— PubChem BioAssay AID1347073 (National Center for Advancing Translational Sciences (NCATS), 2019)
